Data published in patent publication US20250066451A1 (SWEDISH ORPHAN BIOVITRUM AB PUBL, published 2025).

Target: T1, human IL-1R-I (human, UniProt P14778 18-332, limits assumed)
T1 construct: bought recombinant protein; also called hIL-1R-I; hIL-1RI
T1 sequence (looked up): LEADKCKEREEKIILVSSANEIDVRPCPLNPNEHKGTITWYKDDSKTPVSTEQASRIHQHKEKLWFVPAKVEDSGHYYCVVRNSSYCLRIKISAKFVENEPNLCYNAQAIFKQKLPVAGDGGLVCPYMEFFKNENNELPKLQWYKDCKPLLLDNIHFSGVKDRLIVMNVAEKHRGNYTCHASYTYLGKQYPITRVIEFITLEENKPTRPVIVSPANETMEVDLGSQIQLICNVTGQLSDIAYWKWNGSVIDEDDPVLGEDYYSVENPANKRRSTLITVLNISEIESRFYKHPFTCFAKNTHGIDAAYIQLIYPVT
Assay: SPR screening; Z-ABD captured on anti-ABD, 100 nM hIL-1R-I injected

Kd | Binder
3.1 nM | Z18766 (Z-ABD) (designed binder) AQHDEALEVDAKYAKETEQVQMEIFHLPNLTRRQYTAFIRKLLDDPSQSSELLSEAKKLNDSQAPKVDYVLAEAKVLANRELDKYGVSDYYKNLINNAKTVEGVKALIDEILAALPYVPG
2.7 nM | Z18769 (Z-ABD) (designed binder) AQHDEALEVDAKYAKEVEEVQMEIFHLPNLTRRQYTAFIRKLLDDPSQSSELLSEAKKLNDSQAPKVDYVLAEAKVLANRELDKYGVSDYYKNLINNAKTVEGVKALIDEILAALPYVPG
2.6 nM | Z18770 (Z-ABD) (designed binder) AQHDEALEVDAKYAKETERVQMEIFSLPNLTRRQYTAFIRKLLDDPSQSSELLSEAKKLNDSQAPKVDYVLAEAKVLANRELDKYGVSDYYKNLINNAKTVEGVKALIDEILAALPYVPG
3 nM | Z18771 (Z-ABD) (designed binder) AQHDEALEVDAKYAKEVEEIQMEIFRLPNLTRKQYTAFIRKLLDDPSQSSELLSEAKKLNDSQAPKVDYVLAEAKVLANRELDKYGVSDYYKNLINNAKTVEGVKALIDEILAALPYVPG
3 nM | Z18774 (Z-ABD) (designed binder) AQHDEALEVDAKYAKEIEVIQMEIFRLPNLTRKQYTAFIRKLLDDPSQSSELLSEAKKLNDSQAPKVDYVLAEAKVLANRELDKYGVSDYYKNLINNAKTVEGVKALIDEILAALPYVPG
2.8 nM | Z18776 (Z-ABD) (designed binder) AQHDEALEVDAKYAKEVEAIQMEIFHLPNLTRRQYTAFIRKLLDDPSQSSELLSEAKKLNDSQAPKVDYVLAEAKVLANRELDKYGVSDYYKNLINNAKTVEGVKALIDEILAALPYVPG
3.8 nM | Z18777 (Z-ABD) (designed binder) AQHDEALEVDAKYAKEIEQVQMEIFRLPNLTRRQYTAFIRKLLDDPSQSSELLSEAKKLNDSQAPKVDYVLAEAKVLANRELDKYGVSDYYKNLINNAKTVEGVKALIDEILAALPYVPG
2.7 nM | Z18782 (Z-ABD) (designed binder) AQHDEALEVDAKYAKEVEEVQMEIFELPNLTRRQYTAFIRKLLDDPSQSSELLSEAKKLNDSQAPKVDYVLAEAKVLANRELDKYGVSDYYKNLINNAKTVEGVKALIDEILAALPYVPG
3.4 nM | Z18783 (Z-ABD) (designed binder) AQHDEALEVDAKYAKETEVIQMEIFRLPNLTRRQYTAFIRKLLDDPSQSSELLSEAKKLNDSQAPKVDYVLAEAKVLANRELDKYGVSDYYKNLINNAKTVEGVKALIDEILAALPYVPG
3.7 nM | Z18784 (Z-ABD) (designed binder) AQHDEALEVDAKYAKETEAIQMEIFALPNLTRKQYTAFIRKLLDDPSQSSELLSEAKKLNDSQAPKVDYVLAEAKVLANRELDKYGVSDYYKNLINNAKTVEGVKALIDEILAALPYVPG
2.7 nM | Z18785 (Z-ABD) (designed binder) AQHDEALEVDAKYAKELEEIQMEIFHLPNLTRKQYTAFIRKLLDDPSQSSELLSEAKKLNDSQAPKVDYVLAEAKVLANRELDKYGVSDYYKNLINNAKTVEGVKALIDEILAALPYVPG
4.8 nM | Z18786 (Z-ABD) (designed binder) AQHDEALEVDAKYAKELEEVQMEIFRLPNLTRKQYTAFIRKLFDDPSQSSELLSEAKKLNDSQAPKVDYVLAEAKVLANRELDKYGVSDYYKNLINNAKTVEGVKALIDEILAALPYVPG
3 nM | Z18790 (Z-ABD) (designed binder) AQHDEALEVDAKYAKEVEAVQMEIFALPNLTRRQYTAFIRKLLDDPSQSSELLSEAKKLNDSQAPKVDYVLAEAKVLANRELDKYGVSDYYKNLINNAKTVEGVKALIDEILAALPYVPG
3.7 nM | Z18794 (Z-ABD) (designed binder) AQHDEALEVDAKYAKEVEAVQMEIFSLPNLTRRQYTAFIRKLLDDPSQSSELLSEAKKLNDSQAPKVDYVLAEAKVLANRELDKYGVSDYYKNLINNAKTVEGVKALIDEILAALPYVPG
